The IC50 comes from the fitted curve, where viability falls to half of the control; where the fit passes the top or lowest dose, that dose stands as a limit. AUC is the area under the same curve over the 256-fold range up to the top dose, as a fraction; the more sensitive the line, the further below 1. Where the top dose is marked as inferred, it was calculated from the reported fits.
Compound: CCc1nc(-c2cccc(C)c2)c(-c2ccnc(NC(=O)c3ccccc3)c2)s1 [TAK-715]
Test: Viability of human cancer cell lines after 72 h of drug (GDSC screen)
Details: top dose inferred
Description: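 Human cancer cell lines in 384-well plates, medium with 10% serum, drug for 72 h over a 256-fold dose range (nine 2-fold or five 4-fold steps up to the top dose). Adherent lines were fixed and stained with the nucleic acid dye Syto60, suspension lines read with resazurin; signal relative to control wells, capped at 0 and 100%. One two-parameter sigmoid per drug and line, fitted in a mixed model over all curves with the slope shared within a line.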

Cell Line | AUC | IC50 [µM]
A704 (kidney, adherent, top dose 20 µM) | 0.987 | > 20
A2058 (melanoma, adherent, top dose 20 µM) | 0.897 | > 20
A2780 (ovary, semi-adherent, top dose 20 µM) | 0.875 | > 20
ABC-1 (lung adenocarcinoma, adherent, top dose 20 µM) | 0.889 | > 20
ACHN (kidney, adherent, top dose 20 µM) | 0.858 | > 20
AGS (stomach, adherent, top dose 20 µM) | 0.948 | > 20
ALL-PO (lymphoblastic leukaemia, suspension, top dose 20 µM) | 0.774 | 8.27
ALL-SIL (T-cell leukaemia, suspension, top dose 20 µM) | 0.52 | 1.4
AM-38 (glioma, semi-adherent, top dose 20 µM) | 0.969 | > 20
AMO-1 (haematopoietic neoplasm, suspension, top dose 20 µM) | 0.908 | > 20
AN3-CA (endometrium, adherent, top dose 20 µM) | 0.95 | > 20
ARH-77 (myeloma, suspension, top dose 20 µM) | 0.914 | > 20
ASH-3 (thyroid, adherent, top dose 20 µM) | 0.988 | > 20
ATN-1 (T-cell lymphoblastic leukaemia, suspension, top dose 20 µM) | 0.488 | 1.16
AU565 (breast, adherent, top dose 20 µM) | 0.952 | > 20
AsPC-1 (pancreas, adherent, top dose 20 µM) | 0.951 | > 20
BB30-HNC (head and neck, adherent, top dose 20 µM) | 0.918 | > 20
BB49-HNC (head and neck, adherent, top dose 20 µM) | 0.978 | > 20
BB65-RCC (kidney, adherent, top dose 20 µM) | 0.972 | > 20
BC-1 (B-cell lymphoma, suspension, top dose 20 µM) | 0.837 | 10.6
BC-3 (B-cell lymphoma, suspension, top dose 20 µM) | 0.929 | > 20

Cell Line | AUC | IC50 [µM]
BCPAP (thyroid, adherent, top dose 20 µM) | 0.955 | > 20
BE2-M17 (neuroblastoma, adherent, top dose 20 µM) | 0.945 | > 20
BE-13 (lymphoblastic leukaemia, suspension, top dose 20 µM) | 0.836 | 12.1
BEN (non-small cell lung carcinoma, adherent, top dose 20 µM) | 0.94 | > 20
BFTC-905 (bladder, adherent, top dose 20 µM) | 0.937 | > 20
BFTC-909 (kidney, adherent, top dose 20 µM) | 0.977 | > 20
BHT-101 (thyroid, adherent, top dose 20 µM) | 0.962 | > 20
BHY (head and neck, adherent, top dose 20 µM) | 0.917 | > 20
BICR10 (head and neck, adherent, top dose 20 µM) | 0.985 | > 20
BICR22 (head and neck, adherent, top dose 20 µM) | 0.978 | > 20
BICR31 (head and neck, adherent, top dose 20 µM) | 0.981 | > 20
BICR78 (head and neck, adherent, top dose 20 µM) | 0.958 | > 20
BL-41 (Burkitt lymphoma, suspension, top dose 20 µM) | 0.839 | 9.27
BPH-1 (prostate, adherent, top dose 20 µM) | 0.702 | 4.96
BT-20 (breast, adherent, top dose 20 µM) | 0.925 | > 20
BT-474 (breast, adherent, top dose 20 µM) | 0.89 | > 20
BT-483 (breast, adherent, top dose 20 µM) | 0.963 | > 20
BV-173 (chronic myeloid leukaemia, suspension, top dose 20 µM) | 0.885 | 17.3
Becker (glioma, adherent, top dose 20 µM) | 0.954 | > 20
BxPC-3 (pancreas, adherent, top dose 20 µM) | 0.949 | > 20
C2BBe1 (large intestine, adherent, top dose 20 µM) | 0.965 | > 20

Cell Line | AUC | IC50 [µM]
C3A (liver, adherent, top dose 20 µM) | 0.987 | > 20
C32 (melanoma, adherent, top dose 20 µM) | 0.967 | > 20
C-4-I (cervix, adherent, top dose 20 µM) | 0.971 | > 20
C-33-A (cervix, adherent, top dose 20 µM) | 0.935 | > 20
CA46 (Burkitt lymphoma, suspension, top dose 20 µM) | 0.839 | 15.1
CADO-ES1 (Ewing sarcoma, suspension, top dose 20 µM) | 0.93 | > 20
CAKI-1 (kidney, adherent, top dose 20 µM) | 0.87 | > 20
CAL-12T (non-small cell lung carcinoma, adherent, top dose 20 µM) | 0.797 | 10.7
CAL-27 (head and neck, adherent, top dose 20 µM) | 0.926 | > 20
CAL-29 (bladder, adherent, top dose 20 µM) | 0.975 | > 20
CAL-33 (head and neck, adherent, top dose 20 µM) | 0.909 | > 20
CAL-39 (cervix, adherent, top dose 20 µM) | 0.962 | > 20
CAL-51 (breast, adherent, top dose 20 µM) | 0.967 | > 20
CAL-54 (kidney, adherent, top dose 20 µM) | 0.985 | > 20
CAL-62 (thyroid, adherent, top dose 20 µM) | 0.952 | > 20
CAL-72 (osteosarcoma, adherent, top dose 20 µM) | 0.982 | > 20
CAL-78 (chondrosarcoma, adherent, top dose 20 µM) | 0.986 | > 20
CAL-85-1 (breast, adherent, top dose 20 µM) | 0.912 | > 20
CAL-120 (breast, adherent, top dose 20 µM) | 0.949 | > 20
CAL-148 (breast, suspension, top dose 20 µM) | 0.942 | > 20
CAMA-1 (breast, adherent, top dose 20 µM) | 0.917 | > 20

Cell Line | AUC | IC50 [µM]
CAPAN-1 (pancreas, adherent, top dose 20 µM) | 0.969 | > 20
CAS-1 (glioma, adherent, top dose 20 µM) | 0.981 | > 20
CCF-STTG1 (glioma, adherent, top dose 20 µM) | 0.988 | > 20
CCK-81 (large intestine, adherent, top dose 20 µM) | 0.786 | 8.07
CCRF-CEM (lymphoblastic leukaemia, suspension, top dose 20 µM) | 0.934 | > 20
CESS (acute myeloid leukaemia, suspension, top dose 20 µM) | 0.914 | > 20
CFPAC-1 (pancreas, adherent, top dose 20 µM) | 0.975 | > 20
CGTH-W-1 (thyroid, adherent, top dose 20 µM) | 0.98 | > 20
CHL-1 (melanoma, adherent, top dose 20 µM) | 0.952 | > 20
CHP-134 (neuroblastoma, suspension, top dose 20 µM) | 0.974 | > 20
CHP-212 (neuroblastoma, adherent, top dose 20 µM) | 0.924 | > 20
CHSA0011 (chondrosarcoma, adherent, top dose 20 µM) | 0.977 | > 20
CHSA0108 (chondrosarcoma, adherent, top dose 20 µM) | 0.984 | > 20
CHSA8926 (chondrosarcoma, adherent, top dose 20 µM) | 0.98 | > 20
CL-11 (large intestine, adherent, top dose 20 µM) | 0.96 | > 20
CMK (acute myeloid leukaemia, suspension, top dose 20 µM) | 0.881 | 15.4
COLO-205 (large intestine, suspension, top dose 20 µM) | 0.975 | > 20
COLO-320-HSR (large intestine, suspension, top dose 20 µM) | 0.92 | > 20
COLO-668 (small cell lung carcinoma, adherent, top dose 20 µM) | 0.886 | > 20
COLO-678 (large intestine, semi-adherent, top dose 20 µM) | 0.984 | > 20

Reference: the supplement of paper PMC4967469
